From publication PMC8912257 (Cell Host & Microbe, 2022) come the findings set out here.

Chains of the proteins cited; added tags and fusions are not shown. Lines headed by an entry give the natural chain unless they say otherwise; changes in a name come on top.
UniProt P42224: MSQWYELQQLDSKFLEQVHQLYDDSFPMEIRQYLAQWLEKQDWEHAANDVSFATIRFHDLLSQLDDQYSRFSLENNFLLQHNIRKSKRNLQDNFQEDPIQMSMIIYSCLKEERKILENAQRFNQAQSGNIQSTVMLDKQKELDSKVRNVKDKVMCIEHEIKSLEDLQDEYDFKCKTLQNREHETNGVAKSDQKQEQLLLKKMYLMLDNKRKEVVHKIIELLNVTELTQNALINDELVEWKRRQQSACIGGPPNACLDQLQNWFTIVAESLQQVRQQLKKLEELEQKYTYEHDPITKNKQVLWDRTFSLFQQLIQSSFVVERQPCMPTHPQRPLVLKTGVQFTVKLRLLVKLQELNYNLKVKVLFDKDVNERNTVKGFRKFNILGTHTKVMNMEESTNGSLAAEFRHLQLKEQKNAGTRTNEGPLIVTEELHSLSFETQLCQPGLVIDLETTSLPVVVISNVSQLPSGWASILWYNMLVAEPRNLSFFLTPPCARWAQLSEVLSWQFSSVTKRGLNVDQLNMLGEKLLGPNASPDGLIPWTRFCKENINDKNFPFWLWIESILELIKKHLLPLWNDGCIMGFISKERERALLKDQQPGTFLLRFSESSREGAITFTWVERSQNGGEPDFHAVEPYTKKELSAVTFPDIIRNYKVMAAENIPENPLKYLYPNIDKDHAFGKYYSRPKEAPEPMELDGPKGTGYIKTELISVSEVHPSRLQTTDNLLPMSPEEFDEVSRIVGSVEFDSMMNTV
UniProt P52630: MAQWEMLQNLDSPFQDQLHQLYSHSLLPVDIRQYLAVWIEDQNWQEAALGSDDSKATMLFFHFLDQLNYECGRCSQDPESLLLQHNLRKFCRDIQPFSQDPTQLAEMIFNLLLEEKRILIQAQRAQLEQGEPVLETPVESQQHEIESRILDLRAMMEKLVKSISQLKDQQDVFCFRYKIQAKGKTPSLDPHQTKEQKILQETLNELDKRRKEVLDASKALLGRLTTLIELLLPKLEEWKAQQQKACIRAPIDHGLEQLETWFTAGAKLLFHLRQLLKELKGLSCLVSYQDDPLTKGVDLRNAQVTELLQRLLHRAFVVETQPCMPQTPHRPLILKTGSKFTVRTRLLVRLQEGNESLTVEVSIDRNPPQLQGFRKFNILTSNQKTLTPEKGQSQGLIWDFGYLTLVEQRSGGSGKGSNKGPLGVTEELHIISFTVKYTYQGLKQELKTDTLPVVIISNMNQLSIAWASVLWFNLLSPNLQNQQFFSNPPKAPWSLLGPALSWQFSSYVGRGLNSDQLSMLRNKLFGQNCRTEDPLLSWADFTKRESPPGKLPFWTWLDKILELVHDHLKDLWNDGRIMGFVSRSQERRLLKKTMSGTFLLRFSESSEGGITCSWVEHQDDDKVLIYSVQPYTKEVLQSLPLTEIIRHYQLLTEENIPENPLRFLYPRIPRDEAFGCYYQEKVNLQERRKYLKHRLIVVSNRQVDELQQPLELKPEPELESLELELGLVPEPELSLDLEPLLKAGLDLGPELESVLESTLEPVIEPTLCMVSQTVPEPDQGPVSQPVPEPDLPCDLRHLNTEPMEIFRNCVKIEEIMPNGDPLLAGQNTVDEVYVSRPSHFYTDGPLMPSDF
UniProt P40763: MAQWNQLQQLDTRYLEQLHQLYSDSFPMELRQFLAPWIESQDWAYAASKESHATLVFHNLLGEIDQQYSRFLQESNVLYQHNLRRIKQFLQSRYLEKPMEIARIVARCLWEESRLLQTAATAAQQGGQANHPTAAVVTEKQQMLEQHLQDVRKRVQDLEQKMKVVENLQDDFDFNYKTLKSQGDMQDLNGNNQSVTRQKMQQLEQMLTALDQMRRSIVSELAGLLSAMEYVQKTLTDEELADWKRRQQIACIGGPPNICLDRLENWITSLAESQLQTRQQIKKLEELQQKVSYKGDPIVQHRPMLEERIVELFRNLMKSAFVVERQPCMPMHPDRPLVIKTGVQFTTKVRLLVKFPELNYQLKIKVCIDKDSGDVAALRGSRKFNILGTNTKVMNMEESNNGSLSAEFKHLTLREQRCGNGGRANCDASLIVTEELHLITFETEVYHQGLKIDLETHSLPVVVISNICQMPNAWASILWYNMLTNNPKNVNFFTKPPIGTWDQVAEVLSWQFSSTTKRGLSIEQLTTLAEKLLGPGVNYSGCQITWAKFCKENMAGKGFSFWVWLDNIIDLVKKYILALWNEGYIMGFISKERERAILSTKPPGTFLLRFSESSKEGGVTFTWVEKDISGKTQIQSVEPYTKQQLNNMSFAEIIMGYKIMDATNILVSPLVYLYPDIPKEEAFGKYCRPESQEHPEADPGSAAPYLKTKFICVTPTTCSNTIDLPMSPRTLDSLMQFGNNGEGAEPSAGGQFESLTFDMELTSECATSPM
UniProt P42229: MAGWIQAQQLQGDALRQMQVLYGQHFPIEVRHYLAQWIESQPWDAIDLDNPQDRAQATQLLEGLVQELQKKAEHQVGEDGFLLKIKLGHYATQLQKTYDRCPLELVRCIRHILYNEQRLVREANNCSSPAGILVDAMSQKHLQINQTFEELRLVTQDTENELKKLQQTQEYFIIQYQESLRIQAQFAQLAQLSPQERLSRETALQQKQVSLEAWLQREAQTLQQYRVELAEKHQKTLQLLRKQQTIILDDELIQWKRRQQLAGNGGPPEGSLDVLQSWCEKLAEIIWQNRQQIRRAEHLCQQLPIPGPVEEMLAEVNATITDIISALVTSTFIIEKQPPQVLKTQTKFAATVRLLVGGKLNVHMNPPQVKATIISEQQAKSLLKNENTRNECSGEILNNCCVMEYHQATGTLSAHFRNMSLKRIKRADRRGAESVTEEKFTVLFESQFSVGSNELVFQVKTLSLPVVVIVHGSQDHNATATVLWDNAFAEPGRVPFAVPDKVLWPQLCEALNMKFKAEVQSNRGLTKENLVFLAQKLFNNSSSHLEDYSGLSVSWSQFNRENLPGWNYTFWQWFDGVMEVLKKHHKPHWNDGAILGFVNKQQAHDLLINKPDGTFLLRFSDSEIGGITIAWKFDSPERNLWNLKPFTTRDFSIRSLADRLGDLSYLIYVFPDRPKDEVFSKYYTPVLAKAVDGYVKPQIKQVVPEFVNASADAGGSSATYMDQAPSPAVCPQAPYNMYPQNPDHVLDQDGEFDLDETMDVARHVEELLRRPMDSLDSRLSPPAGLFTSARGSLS
UniProt P51692: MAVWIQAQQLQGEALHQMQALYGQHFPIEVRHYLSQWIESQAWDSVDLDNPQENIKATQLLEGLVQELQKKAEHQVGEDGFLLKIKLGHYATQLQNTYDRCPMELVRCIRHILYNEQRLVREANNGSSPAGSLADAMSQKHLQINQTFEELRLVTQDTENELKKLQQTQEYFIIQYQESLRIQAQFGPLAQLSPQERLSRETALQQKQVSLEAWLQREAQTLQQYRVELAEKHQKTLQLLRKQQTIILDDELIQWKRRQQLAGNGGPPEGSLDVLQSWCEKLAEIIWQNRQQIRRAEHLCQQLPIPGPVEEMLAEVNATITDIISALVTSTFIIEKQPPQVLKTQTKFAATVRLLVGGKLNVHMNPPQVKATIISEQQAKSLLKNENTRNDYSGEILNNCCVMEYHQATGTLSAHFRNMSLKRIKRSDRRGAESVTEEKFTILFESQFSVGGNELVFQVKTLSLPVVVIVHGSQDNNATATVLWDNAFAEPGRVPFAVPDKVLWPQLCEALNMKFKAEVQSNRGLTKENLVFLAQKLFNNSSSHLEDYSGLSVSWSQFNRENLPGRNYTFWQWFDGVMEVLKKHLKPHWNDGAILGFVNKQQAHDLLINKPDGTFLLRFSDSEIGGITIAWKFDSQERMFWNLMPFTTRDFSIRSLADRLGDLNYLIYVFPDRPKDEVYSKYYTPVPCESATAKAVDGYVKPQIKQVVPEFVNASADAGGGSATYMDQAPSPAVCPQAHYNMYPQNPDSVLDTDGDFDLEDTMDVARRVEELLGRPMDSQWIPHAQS

Substitutions are numbered along the chain they refer to. Read-outs that look alike come from different tables or passages of the source. No constants are given. Whether binding was seen depends on the method and setting. For some assays here: Binding seen in cells or lysates may run through a third protein. Some entries that bind do so weakly or less than the wild type. For some assays here: Where a sequence is shown, tags or fusion partners need not be part of it.

In assay [1] the target is T1, TAP-tagged VACV protein 018 (vaccinia virus strain Western Reserve) (UniProt P17356).
T1 sequence: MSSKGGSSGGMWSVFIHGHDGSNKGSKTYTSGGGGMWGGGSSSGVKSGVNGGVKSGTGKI
In words: pull-down.

Assay [2] addresses T2, TAP-tagged 018^AGA (vaccinia virus strain Western Reserve) (UniProt P17356).
T2 sequence: T1 sequence with H17A, H19A
In words: pull-down.

The target of assay [3] is T3, TAP-018 produced in a cell-free system (vaccinia virus strain Western Reserve) (UniProt P17356).
T3 sequence: T1 sequence
The experiment in a line: pull-down.

For assay [4], the target named is T1, TAP-tagged VACV protein 018 (vaccinia virus strain Western Reserve). The experiment in a line: pull-down. The source holds these as a separate data set.
The target in assay [5] is Full-length STAT1 protein (unphosphorylated, U-STAT1) (UniProt P42224). In words: ITC; both purified.
Assay [6] addresses Full-length STAT1 protein (unphosphorylated) (human) (UniProt P42224). In words: ITC; both purified.
Assay [7] concerns the target STAT1 (endogenous, human cell lines) (human (endogenous in 2fTGH, U6A, HEK 293T)) (UniProt P42224). In words: pull-down.

Take “STAT1 (endogenous, human cell lines) (from UniProt P42224 1-750)”: the binding entry in assay [1] was “binds”; in assay [2], “no binding”.

“STAT1 produced in a cell-free system (from UniProt P42224 1-750)”: the binding entry in assay [3] is “binds”.

For the molecule “V5-STAT1 (1-684) (from UniProt P42224 1-684) (domain or fragment)”, in assay [1], the binding entry is given as “binds”.

Consider “V5-STAT1 (1-712) (from UniProt P42224 1-712)”, for which the binding entry in assay [1] is “binds”.

On to V5-STAT1 (from UniProt P42224 1-750), for which, in assay [1], the binding entry is reported as “binds”.

For V5-STAT2 (from UniProt P52630 1-851), the binding result in assay [1] is reported as “no binding”.

Take “V5-STAT3 (control of the chimera experiment, Figure 5D) (from UniProt P40763 1-770)”: in assay [1], the binding entry is on record as “no binding”.

In the case of “V5-STAT3 (human) (from UniProt P40763 1-770)”, in assay [1], the binding entry is listed as “no binding”.

Consider “V5-STAT3^Q635H (human) (from UniProt P40763 1-770)”, for which the binding entry in assay [1] is on record as “binds”.

For the molecule V5-STAT5A (from UniProt P42229 1-794), the binding entry in assay [1] is “no binding”.

V5-STAT5B (from UniProt P51692 1-787): the binding result in assay [1] is reported as “no binding”.

B1: V5-STAT4 (protein, UniProt Q14765 1-748)
chain: MSQWNQVQQLEIKFLEQVDQFYDDNFPMEIRHLLAQWIENQDWEAASNNETMATILLQNLLIQLDEQLGRVSKEKNLLLIHNLKRIRKVLQGKFHGNPMHVAVVISNCLREERRILAAANMPVQGPLEKSLQSSSVSERQRNVEHKVAAIKNSVQMTEQDTKYLEDLQDEFDYRYKTIQTMDQSDKNSAMVNQEVLTLQEMLNSLDFKRKEALSKMTQIIHETDLLMNTMLIEELQDWKRRQQIACIGGPLHNGLDQLQNCFTLLAESLFQLRRQLEKLEEQSTKMTYEGDPIPMQRTHMLERVTFLIYNLFKNSFVVERQPCMPTHPQRPLVLKTLIQFTVKLRLLIKLPELNYQVKVKASIDKNVSTLSNRRFVLCGTNVKAMSIEESSNGSLSVEFRHLQPKEMKSSAGGKGNEGCHMVTEELHSITFETQICLYGLTIDLETSSLPVVMISNVSQLPNAWASIIWYNVSTNDSQNLVFFNNPPPATLSQLLEVMSWQFSSYVGRGLNSDQLHMLAEKLTVQSSYSDGHLTWAKFCKEHLPGKSFTFWTWLEAILDLIKKHILPLWIDGYVMGFVSKEKERLLLKDKMPGTFLLRFSESHLGGITFTWVDHSESGEVRFHSVEPYNKGRLSALPFADILRDYKVIMAENIPENPLKYLYPDIPKDKAFGKHYSSQPCEVSRPTERGDKGYVPSVFIPISTIRSDSTEPHSPSDLLPMSPSVYAVLRENLSPTTIETAMKSPYSAE
Turning to B1, the binding result in assay [4] is reported as “binds”.

B2: GB1-018^AGA (018 with 17-HGH-19 mutated to 17-AGA-19, fused to GB1) (protein)
chain: T1 sequence with H17A, H19A
For B2, the binding entry in assay [5] is recorded as “no binding (tested: 100 μM 018AGA titrated into 10 μM STAT1)”.

B3: GB1-018^AGA (protein, UniProt P17356 1-60)
chain: T1 sequence with H17A, H19A
Consider B3, for which the binding entry in assay [6] is on record as “no binding (tested: 100 μM GB1-018^AGA into 10 μM U-STAT1)”.

B4: GB1-018 (natural protein)
chain: T1 sequence
As to B4, the binding result in assay [7] was “binds”.

B5: IRF9 (endogenous) (protein, UniProt Q00978 1-393)
chain: MASGRARCTRKLRNWVVEQVESGQFPGVCWDDTAKTMFRIPWKHAGKQDFREDQDAAFFKAWAIFKGKYKEGDTGGPAVWKTRLRCALNKSSEFKEVPERGRMDVAEPYKVYQLLPPGIVSGQPGTQKVPSKRQHSSVSSERKEEEDAMQNCTLSPSVLQDSLNNEEEGASGGAVHSDIGSSSSSSSPEPQEVTDTTEAPFQGDQRSLEFLLPPEPDYSLLLTFIYNGRVVGEAQVQSLDCRLVAEPSGSESSMEQVLFPKPGPLEPTQRLLSQLERGILVASNPRGLFVQRLCPIPISWNAPQAPPGPGPHLLPSNECVELFRTAYFCRDLVRYFQGLGPPPKFQVTLNFWEESHGSSHTPQNLITVKMEQAFARYLLEQTPEQQAAILSLV
Turning to B5, the binding entry in assay [4] is “no binding”.
